Test results: a collection of fitness landscapes (doi:10.1126/science.1257360)
The other results are listed elsewhere or left out.

B1: PhoQ; a variant is named by its letters at X, in order, P23837 (parent)
chain: MKKLLRLFFPLSLRVRFLLATAAVVLVLSLAYGMVALIGYSVSFDKTTFRLLRGESNLFYTLAKWENNKLHVELPENIDKQSPTMTLIYDENGQLLWAQRDVPWLMKMIQPDWLKSNGFHEIEADVNDTSLLLSGDHSIQQQLQEVREDDDDAEMTHSVAVNVYPATSRMPKLTIVVVDTIPVELKSSYMVWSWFIYVLSANLLLVIPLLWVAAWWSLRPIEALAKEVRELEEHNRELLNPATTRELTSLVRNLNRLLKSERERYDKYRTTLTDLTHSLKTPLXXLQXXLRSLRSEKMSVSDAEPVMLEQISRISQQIGYYLHRASMRGGTLLSRELHPVAPLLDNLTSALNKVYQRKGVNISLDISPEISFVGEQNDFVEVMGNVLDNACKYCLEFVEISARQTDEHLYIVVEDDGPGIPLSKREVIFDRGQRVDTLRPGQGVGLAVAREITEQYEGKIVAGESMLGGARMEVIFGRQHSAPKDE

Variants of: B1
Test: enrichment ratio after two sorts for PhoP signalling (ratio (wild type AVST 3.29)); higher = more functional
Conditions: with PhoP (E. coli)

Variant | enrichment ratio
YLNW | ≤ 0.25
DAYH | ≤ 0.25
RKPQ | ≤ 0.25
QCIY | ≤ 0.25
SQCV | 6.68
IPYP | ≤ 0.25
WQNE | ≤ 0.25
SESM | 10.5
VGPG | ≤ 0.25
DYAQ | ≤ 0.25
RWDP | ≤ 0.25
DTPG | ≤ 0.25
PKVF | ≤ 0.25
ENWG | ≤ 0.25
PCWF | ≤ 0.25
DWLA | ≤ 0.25
DTIK | ≤ 0.25
TRST | ≤ 0.25
YQVF | ≤ 0.25
MMCW | ≤ 0.25
VYQW | ≤ 0.25
GWVF | ≤ 0.25
MWSI | ≤ 0.25
DRMR | ≤ 0.25

Variant | enrichment ratio
RNFI | ≤ 0.25
LHGF | ≤ 0.25
MFQQ | ≤ 0.25
LLAR | ≤ 0.25
RKCA | ≤ 0.25
TSSC | 12.8
KKLI | ≤ 0.25
PFIY | ≤ 0.25
LARY | ≤ 0.25
FRMP | ≤ 0.25
EKCN | ≤ 0.25
HTGM | ≤ 0.25
QMHV | ≤ 0.25
HCRR | ≤ 0.25
ITSM | 2.11
NWHN | ≤ 0.25
TSTE | 6.55
AEIS | 10.8
FNLQ | 1.86
SCWR | ≤ 0.25
PPMN | ≤ 0.25
SKIG | 0.558
HIDI | ≤ 0.25
FHME | ≤ 0.25

Variant | enrichment ratio
SFER | ≤ 0.25
KRVM | ≤ 0.25
VRKQ | ≤ 0.25
NMYC | ≤ 0.25
LKNV | ≤ 0.25
WEDH | ≤ 0.25
LTNS | ≤ 0.25
FQNE | ≤ 0.25
FYRS | ≤ 0.25
PNFN | ≤ 0.25
HPAL | ≤ 0.25
DEQF | ≤ 0.25
RSVD | 0.314
FGNT | ≤ 0.25
MSCT | 0.559
RFDC | 0.461
EHAV | ≤ 0.25
EVDA | ≤ 0.25
YNQN | ≤ 0.25
TVPM | ≤ 0.25
ANEI | ≤ 0.25
YFCV | ≤ 0.25
YCCV | ≤ 0.25
QCAM | 4.77

Variant | enrichment ratio
YRVE | ≤ 0.25
VMKF | ≤ 0.25
NHKR | ≤ 0.25
HYWE | ≤ 0.25
WEHH | ≤ 0.25
FPIK | ≤ 0.25
DGLF | ≤ 0.25
KSDC | ≤ 0.25
WDQM | ≤ 0.25
YVWN | ≤ 0.25
GFFI | ≤ 0.25
SIKD | ≤ 0.25
YRSK | ≤ 0.25
ITLN | 1.49
IEDV | ≤ 0.25
SQFE | ≤ 0.25
YRYF | ≤ 0.25
TNFY | ≤ 0.25
NLKN | ≤ 0.25
HVIF | ≤ 0.25
KPVN | ≤ 0.25
QFQG | ≤ 0.25
VVYS | ≤ 0.25
NWSK | ≤ 0.25

Variant | enrichment ratio
FWER | ≤ 0.25
AFEP | ≤ 0.25
RPFM | ≤ 0.25
DQTG | ≤ 0.25
KSMT | ≤ 0.25
KQPV | ≤ 0.25
NMTP | ≤ 0.25
FDYT | ≤ 0.25
RNPR | ≤ 0.25
IPTN | ≤ 0.25
AQYP | ≤ 0.25
HRRA | ≤ 0.25
GSLA | 6.7
DRTF | ≤ 0.25
DQFF | ≤ 0.25
WHFW | ≤ 0.25
QSAG | ≤ 0.25
EERK | ≤ 0.25
RTTQ | ≤ 0.25
VDED | ≤ 0.25
HDDN | ≤ 0.25
GNDS | ≤ 0.25
QIFN | ≤ 0.25
GCFW | ≤ 0.25

Variant | enrichment ratio
NMDE | ≤ 0.25
LMAR | ≤ 0.25
GKWN | ≤ 0.25
GLYT | ≤ 0.25
DRDP | ≤ 0.25
IIDS | ≤ 0.25
WQRY | ≤ 0.25
QSQQ | ≤ 0.25
LVDA | ≤ 0.25
VQIC | ≤ 0.25
NKSW | ≤ 0.25
AGSQ | 12.9
QCYV | ≤ 0.25
YNLL | 10.8
NRIK | ≤ 0.25
KRHP | ≤ 0.25
NDRG | ≤ 0.25
CVLC | ≤ 0.25
PQPV | ≤ 0.25
LWFV | ≤ 0.25
GCHR | ≤ 0.25
WFVP | ≤ 0.25
PDCR | ≤ 0.25
KDKT | ≤ 0.25

Variant | enrichment ratio
MSWY | 5.91
QDGG | ≤ 0.25
ESCP | ≤ 0.25
SKNW | ≤ 0.25
TLYN | 0.821
LGVN | ≤ 0.25
FHPV | ≤ 0.25
VWEH | ≤ 0.25
PSAH | ≤ 0.25
AIQT | ≤ 0.25
DMVS | ≤ 0.25
KIYI | ≤ 0.25
EISM | ≤ 0.25
AVCP | ≤ 0.25
QTGH | ≤ 0.25
GGDL | ≤ 0.25
SDSR | ≤ 0.25
MCWI | 18.3
ANCH | 4.77
DELM | ≤ 0.25
IYCC | ≤ 0.25
VAHK | ≤ 0.25
DRTA | ≤ 0.25
KMCG | ≤ 0.25

Variant | enrichment ratio
MDKY | ≤ 0.25
PKVQ | ≤ 0.25
RFMN | ≤ 0.25
YKSH | ≤ 0.25
YVCV | 0.279
HYKA | ≤ 0.25
DGNM | ≤ 0.25
PTGI | ≤ 0.25
MMEP | ≤ 0.25
PSLM | 0.728
YRIG | ≤ 0.25
PTHK | ≤ 0.25
CLFA | ≤ 0.25
VKDE | ≤ 0.25
IEAN | ≤ 0.25
TVKF | ≤ 0.25
IGWH | 3.3
MWFV | ≤ 0.25
TDHM | ≤ 0.25
WCPP | ≤ 0.25
EIYW | ≤ 0.25
PMHP | ≤ 0.25
ILFD | ≤ 0.25
HLHW | ≤ 0.25

Variant | enrichment ratio
SEKI | ≤ 0.25
KAPR | ≤ 0.25
AFKL | ≤ 0.25
SVQR | 1.37
NLPM | ≤ 0.25
GVVN | ≤ 0.25
FGYE | ≤ 0.25
GSCN | ≤ 0.25
VCIF | ≤ 0.25
LLAV | ≤ 0.25
QNPA | ≤ 0.25
THDK | ≤ 0.25
PWGT | ≤ 0.25
LWEY | ≤ 0.25
VAYN | ≤ 0.25
TTYQ | 11.4
SKNQ | ≤ 0.25
PDLF | ≤ 0.25
DHCC | ≤ 0.25
RHPL | ≤ 0.25
EKSA | ≤ 0.25
FQHC | ≤ 0.25
MESK | ≤ 0.25
LFPH | ≤ 0.25

Variant | enrichment ratio
SHPK | ≤ 0.25
HWYM | ≤ 0.25
MQSL | ≤ 0.25
VKSV | ≤ 0.25
LTSH | ≤ 0.25
FGHH | ≤ 0.25
IVMF | ≤ 0.25
VCEN | ≤ 0.25
GHFC | ≤ 0.25
KDGE | ≤ 0.25
TYRT | ≤ 0.25
FCEY | ≤ 0.25
YTNQ | ≤ 0.25
NILM | ≤ 0.25
MCWY | 9.91
DDYL | ≤ 0.25
AHTF | ≤ 0.25
ETRW | ≤ 0.25
MNRA | ≤ 0.25
DIWQ | ≤ 0.25
LPWI | ≤ 0.25
VECP | ≤ 0.25
RTAN | ≤ 0.25
STHG | ≤ 0.25

Variant | enrichment ratio
LKHE | ≤ 0.25
TLRL | ≤ 0.25
KKTF | ≤ 0.25
YQKC | ≤ 0.25
FICL | 11
QRIK | ≤ 0.25
FFCR | ≤ 0.25
DQSL | ≤ 0.25
CQLT | ≤ 0.25
LVLQ | ≤ 0.25
YGNE | ≤ 0.25
VLTQ | ≤ 0.25
FICD | ≤ 0.25
NGRF | ≤ 0.25
WNSV | ≤ 0.25
RNMM | ≤ 0.25
WQPE | ≤ 0.25
PQTY | ≤ 0.25
GTPA | ≤ 0.25
IIVI | ≤ 0.25
MTEF | ≤ 0.25
DRIV | ≤ 0.25
SVVT | 0.568
EMID | ≤ 0.25

Variant | enrichment ratio
PSMV | ≤ 0.25
KFWQ | ≤ 0.25
KYQW | ≤ 0.25
MYWV | ≤ 0.25
PTRS | ≤ 0.25
MGSF | ≤ 0.25
ASDP | ≤ 0.25
VTDS | ≤ 0.25
ITIN | ≤ 0.25
LCDV | ≤ 0.25
FIKL | ≤ 0.25
DKGF | ≤ 0.25
SHQI | ≤ 0.25
PEMI | ≤ 0.25
KVPS | ≤ 0.25
VWAP | ≤ 0.25
LFLT | ≤ 0.25
FLTV | ≤ 0.25
WADI | ≤ 0.25
DLFH | ≤ 0.25
THSE | 3.83
FPTG | ≤ 0.25
AKFK | ≤ 0.25
KSNI | ≤ 0.25

Variant | enrichment ratio
DKSP | ≤ 0.25
IDDC | ≤ 0.25
VSET | ≤ 0.25
YHKH | ≤ 0.25
RHLC | ≤ 0.25
WYFL | ≤ 0.25
DKLA | ≤ 0.25
FDYE | ≤ 0.25
ATNY | 5.32
QTMF | ≤ 0.25
WKMM | ≤ 0.25
KPHI | ≤ 0.25
GEMH | ≤ 0.25
YQCF | ≤ 0.25
SVLH | 4.52
WARP | ≤ 0.25
AYML | ≤ 0.25
NMQQ | ≤ 0.25
